Results published in the supplement of paper PMC4967469.
A lower IC50 marks a more sensitive line; a fit beyond the top or the lowest dose is shown as a bound at that dose. AUC, from the same fit, is the share of area under the viability curve across the 256-fold dose range; it is 1 without any effect and falls as sensitivity rises.

Each cell line was assayed with CC[C@H](Nc1ncnc2[nH]cnc12)c1nc2cccc(F)c2c(=O)n1-c1ccccc1 [CAL-101] (assay: Viability of human cancer cell lines after 72 h of drug (GDSC screen)).
Procedure: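 Human cancer cell lines in 384-well plates, medium with 10% serum, drug for 72 h over a 256-fold dose range (nine 2-fold or five 4-fold steps up to the top dose). Adherent lines were fixed and stained with the nucleic acid dye Syto60, suspension lines read with resazurin; signal relative to control wells, capped at 0 and 100%. One two-parameter sigmoid per drug and line, fitted in a mixed model over all curves with the slope shared within a line.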
With “NCI-H1092 (small cell lung carcinoma, suspension, top dose 20 µM)” the AUC was 0.985 and the IC50 was greater than 20 µM.
“NCI-H1155 (large cell lung carcinoma, suspension, top dose 20 µM)” showed an AUC of 0.991 and an IC50 greater than 20 µM.
“NCI-H1299 (large cell lung carcinoma, adherent, top dose 20 µM)” gave an AUC of 0.953 and an IC50 greater than 20 µM.
In the case of “NCI-H1304 (small cell lung carcinoma, suspension, top dose 20 µM)”, the AUC is reported as 0.908 and the IC50 is reported as greater than 20 µM.
“NCI-H1355 (lung adenocarcinoma, adherent, top dose 20 µM)” was tested, and the AUC was 0.963 and the IC50 was greater than 20 µM.
For “NCI-H1395 (lung adenocarcinoma, adherent, top dose 20 µM)”, the AUC was 0.939 and the IC50 was greater than 20 µM.
“NCI-H1417 (small cell lung carcinoma, suspension, top dose 20 µM)” showed an AUC of 0.971 and an IC50 greater than 20 µM.
Work on “NCI-H1435 (lung adenocarcinoma, semi-adherent, top dose 20 µM)” yielded an AUC of 0.98 and an IC50 greater than 20 µM.
In the case of “NCI-H1436 (small cell lung carcinoma, suspension, top dose 20 µM)”, the AUC is reported as 0.968 and the IC50 is reported as greater than 20 µM.
“NCI-H1437 (lung adenocarcinoma, adherent, top dose 20 µM)” was tested, and the AUC was 0.958 and the IC50 was greater than 20 µM.
“NCI-H1563 (lung adenocarcinoma, adherent, top dose 20 µM)” showed an AUC of 0.894 and an IC50 greater than 20 µM.
In the case of “NCI-H1568 (lung adenocarcinoma, adherent, top dose 20 µM)”, the AUC is reported as 0.968 and the IC50 is reported as greater than 20 µM.
In the case of “NCI-H1573 (lung adenocarcinoma, adherent, top dose 20 µM)”, the AUC is reported as 0.986 and the IC50 is reported as greater than 20 µM.
“NCI-H1581 (large cell lung carcinoma, semi-adherent, top dose 20 µM)” showed an AUC of 0.983 and an IC50 greater than 20 µM.
“NCI-H1623 (lung adenocarcinoma, adherent, top dose 20 µM)” showed an AUC of 0.978 and an IC50 greater than 20 µM.
“NCI-H1648 (lung adenocarcinoma, adherent, top dose 20 µM)” gave an AUC of 0.959 and an IC50 greater than 20 µM.
“NCI-H1651 (lung adenocarcinoma, adherent, top dose 20 µM)” was tested, and the AUC was 0.981 and the IC50 was greater than 20 µM.
“NCI-H1666 (lung adenocarcinoma, semi-adherent, top dose 20 µM)” was tested, and the AUC was 0.954 and the IC50 was greater than 20 µM.
“NCI-H1688 (small cell lung carcinoma, adherent, top dose 20 µM)” gave an AUC of 0.986 and an IC50 greater than 20 µM.
With “NCI-H1693 (lung adenocarcinoma, adherent, top dose 20 µM)” the AUC was 0.975 and the IC50 was greater than 20 µM.
Cell Line “NCI-H1694 (small cell lung carcinoma, suspension, top dose 20 µM)” has an AUC of 0.946 and an IC50 greater than 20 µM.
With “NCI-H1703 (lung adenocarcinoma, adherent, top dose 20 µM)” the AUC was 0.897 and the IC50 was greater than 20 µM.
With “NCI-H1734 (lung adenocarcinoma, adherent, top dose 20 µM)” the AUC was 0.962 and the IC50 was greater than 20 µM.
In the case of “NCI-H1755 (lung adenocarcinoma, adherent, top dose 20 µM)”, the AUC is reported as 0.536 and the IC50 is reported as 1.59 µM.
Cell Line “NCI-H1770 (non-small cell lung carcinoma, suspension, top dose 20 µM)” has an AUC of 0.992 and an IC50 greater than 20 µM.
“NCI-H1781 (lung adenocarcinoma, adherent, top dose 20 µM)” gave an AUC of 0.978 and an IC50 greater than 20 µM.
In the case of “NCI-H1792 (lung adenocarcinoma, adherent, top dose 20 µM)”, the AUC is reported as 0.952 and the IC50 is reported as greater than 20 µM.
For “NCI-H1793 (lung adenocarcinoma, adherent, top dose 20 µM)”, the AUC was 0.975 and the IC50 was greater than 20 µM.
“NCI-H1836 (small cell lung carcinoma, suspension, top dose 20 µM)” gave an AUC of 0.986 and an IC50 greater than 20 µM.
With “NCI-H1838 (lung adenocarcinoma, adherent, top dose 20 µM)” the AUC was 0.975 and the IC50 was greater than 20 µM.
For “NCI-H1869 (lung squamous cell carcinoma, adherent, top dose 20 µM)”, the AUC was 0.927 and the IC50 was greater than 20 µM.
“NCI-H1876 (small cell lung carcinoma, adherent, top dose 20 µM)” was tested, and the AUC was 0.959 and the IC50 was greater than 20 µM.
“NCI-H1915 (large cell lung carcinoma, adherent, top dose 20 µM)” gave an AUC of 0.975 and an IC50 greater than 20 µM.
In the case of “NCI-H1975 (lung adenocarcinoma, adherent, top dose 20 µM)”, the AUC is reported as 0.958 and the IC50 is reported as greater than 20 µM.
“NCI-H1993 (lung adenocarcinoma, adherent, top dose 20 µM)” showed an AUC of 0.931 and an IC50 greater than 20 µM.
“NCI-H2009 (lung adenocarcinoma, adherent, top dose 20 µM)” gave an AUC of 0.986 and an IC50 greater than 20 µM.
“NCI-H2023 (lung adenocarcinoma, adherent, top dose 20 µM)” gave an AUC of 0.973 and an IC50 greater than 20 µM.
“NCI-H2029 (small cell lung carcinoma, adherent, top dose 20 µM)” was tested, and the AUC was 0.989 and the IC50 was greater than 20 µM.
“NCI-H2030 (lung adenocarcinoma, adherent, top dose 20 µM)” was tested, and the AUC was 0.919 and the IC50 was greater than 20 µM.
“NCI-H2052 (mesothelioma, adherent, top dose 20 µM)” showed an AUC of 0.978 and an IC50 greater than 20 µM.
“NCI-H2081 (small cell lung carcinoma, suspension, top dose 20 µM)” showed an AUC of 0.947 and an IC50 greater than 20 µM.
Cell Line “NCI-H2085 (lung adenocarcinoma, adherent, top dose 20 µM)” has an AUC of 0.793 and an IC50 of 10 µM.
“NCI-H2087 (lung adenocarcinoma, semi-adherent, top dose 20 µM)” gave an AUC of 0.639 and an IC50 of 3.13 µM.
With “NCI-H2110 (non-small cell lung carcinoma, adherent, top dose 20 µM)” the AUC was 0.985 and the IC50 was greater than 20 µM.
“NCI-H2122 (lung adenocarcinoma, adherent, top dose 20 µM)” was tested, and the AUC was 0.987 and the IC50 was greater than 20 µM.
“NCI-H2135 (non-small cell lung carcinoma, adherent, top dose 20 µM)” showed an AUC of 0.953 and an IC50 greater than 20 µM.
Cell Line “NCI-H2141 (small cell lung carcinoma, suspension, top dose 20 µM)” has an AUC of 0.93 and an IC50 greater than 20 µM.
For “NCI-H2170 (lung squamous cell carcinoma, adherent, top dose 20 µM)”, the AUC was 0.984 and the IC50 was greater than 20 µM.
“NCI-H2171 (small cell lung carcinoma, suspension, top dose 20 µM)” was tested, and the AUC was 0.977 and the IC50 was greater than 20 µM.
“NCI-H2172 (non-small cell lung carcinoma, adherent, top dose 20 µM)” showed an AUC of 0.981 and an IC50 greater than 20 µM.
Cell Line “NCI-H2196 (small cell lung carcinoma, adherent, top dose 20 µM)” has an AUC of 0.974 and an IC50 greater than 20 µM.
“NCI-H2227 (small cell lung carcinoma, semi-adherent, top dose 20 µM)” showed an AUC of 0.911 and an IC50 greater than 20 µM.
